These results are taken from publication PMC6919601, “Identification of Plasmodium dipeptidyl aminopeptidase allosteric inhibitors by high throughput screening” (PLoS ONE, 2019).

Hit rate of the full screen: of about 110,000 compounds, about 230 (0.21%) showed an effect of 50% or more. This is one part of the list.
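Note: 30 min substrate incubation versus DMSO and 10 µM JCP410 controls.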

DPAP1, sequence (Q8IIJ9 whole entry, looked up): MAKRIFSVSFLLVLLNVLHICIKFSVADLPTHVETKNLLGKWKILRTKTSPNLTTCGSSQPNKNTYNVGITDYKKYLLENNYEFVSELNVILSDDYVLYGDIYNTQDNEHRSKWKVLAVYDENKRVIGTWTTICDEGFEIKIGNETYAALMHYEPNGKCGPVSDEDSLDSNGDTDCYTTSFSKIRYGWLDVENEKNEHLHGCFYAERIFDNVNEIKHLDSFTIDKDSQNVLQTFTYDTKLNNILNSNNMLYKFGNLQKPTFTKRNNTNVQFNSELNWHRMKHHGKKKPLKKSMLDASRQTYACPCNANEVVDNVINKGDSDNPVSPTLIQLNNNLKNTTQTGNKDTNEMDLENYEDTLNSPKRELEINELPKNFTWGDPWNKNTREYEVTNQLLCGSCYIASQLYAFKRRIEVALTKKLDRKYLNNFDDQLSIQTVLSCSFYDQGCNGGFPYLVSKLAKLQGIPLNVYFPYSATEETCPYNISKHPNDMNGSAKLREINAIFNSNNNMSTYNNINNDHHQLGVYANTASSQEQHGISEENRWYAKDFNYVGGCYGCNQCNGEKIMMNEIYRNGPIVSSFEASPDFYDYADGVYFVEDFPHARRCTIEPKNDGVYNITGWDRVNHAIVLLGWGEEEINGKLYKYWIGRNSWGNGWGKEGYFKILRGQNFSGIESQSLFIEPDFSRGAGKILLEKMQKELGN

This experiment addresses DPAP1 (Plasmodium falciparum, UniProt Q8IIJ9). Kind of experiment: primary screen, percent inhibition; read by cleavage of a fluorogenic dipeptide substrate; higher = more effect of the substance. Details: species or system P. falciparum D10 trophozoite lysates; single well.
As for `CCc1ccc(OCC(=O)N2CCc3ccccc32)cc1`, the “% Inhibition @ 10 uM” value is recorded as -3.49%. With `O=C(CNC(=O)c1ccccc1)NC1(C(=O)NC2CCCCC2)CCCCC1` the figure was 0.457%; with `CCCCNC1=Nc2ccccc2CCC1`, 1.24%; with `CC(CNc1cnn(C23CC4CC(CC(C4)C2)C3)c(=O)c1Cl)c1ccccc1` (stereo not shown), 1.72%. Under `COC(=O)C1=CN(Cc2ccc(F)cc2)C=C(C(=O)OC)C1c1cc(Br)ccc1OC` stands 4.99%; under `COC(=O)c1ccc(/C=c2\sc3nc4ccccc4n3c2=O)cc1`, -0.414%; under `c1ccc(CN2CCN(C3CCCCCCC3)CC2)cc1`, 0.472%.

In the case of `C1=C(c2c[nH]c3ccccc23)CCN(Cc2ccccc2)C1`, the “% Inhibition @ 10 uM” value was -0.0309%. For `CCc1cc2c(NCCc3ccccc3)ncnc2s1`, the “% Inhibition @ 10 uM” value was 2.64%. Regarding `COc1cccc2c1Oc1ncccc1N(c1ccc(C(=O)NCc3ccco3)s1)C2`, the “% Inhibition @ 10 uM” value is -3.2%.

`OCCN(CCO)c1nc(N2CCCCC2)ncc1F`: the “% Inhibition @ 10 uM” value was found to be 2.86%. Under `Cc1ccc(NC2=NC(=O)C(CC(=O)Nc3ccccc3C(F)(F)F)S2)cc1` (stereo not shown) stands 5.97%; under `O=C(/C=C/c1ccco1)NCCCc1ccccc1`, -8.86%; under `Cc1ccc(C(=O)NC2(C(=O)NC3CCCC3)CCCCC2)cc1`, -6.37%. For the compound `Cc1ccc(-n2nc(C)c3c(C(=O)N4CCC(C)CC4)cc(C)nc32)cc1`, the “% Inhibition @ 10 uM” value is on record as 1.93%. In the case of `COc1ccc(NS(=O)(=O)c2ccc(NS(=O)(=O)c3cc(Cl)ccc3Cl)cc2)cc1`, the “% Inhibition @ 10 uM” value is recorded as 1.67%. With `CCOc1ccc2nc(NC(=O)c3cc(=O)c4cc(Cl)ccc4o3)sc2c1` the figure was 4.87%. As for `O=C(NC1CCS(=O)(=O)C1)C12CC3CC(CC(C3)C1)C2` (stereo not shown), the “% Inhibition @ 10 uM” value is given as -1.15%. Under `Cc1nc2cccnc2n1-c1ccc(C(=O)NCCN2CCN(C)CC2)cc1` stands -7.68%; under `O=[N+]([O-])c1ccc(-n2c(O)nc3cccnc32)cc1`, -0.712%.

As for `O=C(NC1CCN(Cc2ccccc2)CC1)c1ccc(Cl)cc1Cl`, the “% Inhibition @ 10 uM” value is on record as -6.12%. With `CSc1ccc(C2CC(c3c(O)cc(C)oc3=O)=Nc3ccccc3S2)cc1` (stereo not shown) the figure was -3.26%. With `Cc1nc2cc(NC(=O)NC(C)(C)CC(C)(C)C)ccc2n1C` the figure was 6.79%; with `OC(c1ccc(F)cc1)(c1ccc(F)cc1)c1c[nH]cn1`, -5.29%; with `O=C(Nc1ccccc1)N1CCN(c2ccc(F)cc2)CC1`, 4.7%.

Take `O=C(Nc1ncc(Br)s1)C1CCCN(S(=O)(=O)c2c[nH]cn2)C1` (stereo not shown): the “% Inhibition @ 10 uM” value is given as -2.25%. With `N#CC1=C(N)Oc2cc(O)ccc2C1c1ccc(Br)s1` (stereo not shown) the figure was 3.54%. Under `COc1cc(OC)c(OC)cc1CN1CCN(C(C)C)CC1` stands 1.42%; under `COCCCNC(=O)c1ccc(-c2nc(CS(=O)(=O)c3ccccc3)c(C)o2)cc1`, -0.416%.

On to `CCOC(=O)C1=C(C)N(CCO)C(=O)NC1c1ccc(OCC)cc1` (stereo not shown), for which the “% Inhibition @ 10 uM” value is listed as 0.503%.

For the compound `CC(C)c1ccc(C(C)C)c(S(N)(=O)=O)c1`, the “% Inhibition @ 10 uM” value is -1.42%.

For `COc1ccc(C/N=C2/C=C(O)CC(C)(C)C2)cc1`, the “% Inhibition @ 10 uM” value was determined as 2.92%.

Take `OCCNCc1cc(Br)ccc1OCc1ccccc1`: the “% Inhibition @ 10 uM” value is listed as -3.04%. Under `O=C(COc1ccccc1)N(Cc1ccco1)Cc1ccco1` stands -4.67%. As to `O=C1CC(NC2CCCC2)C(=O)N1c1ccc(N2C(=O)CC(NC3CCCC3)C2=O)cc1` (stereo not shown), the “% Inhibition @ 10 uM” value was 1.35%. With `CCc1c(C)sc(NC(=O)c2ccc(Br)cc2)c1C(N)=O` the figure was 10.9%; with `COc1ccccc1CNC(=O)C(=O)NCC(c1cccnc1)N1CCOCC1` (stereo not shown), 0.00665%; with `Cc1cc(OCC(=O)NCc2ccc3c(c2)OCO3)ccc1Cl`, 4.57%. With `CCO/C(O)=C1/C(C)=Nc2nc3ccccc3n2C1c1ccc(O)cc1` (stereo not shown), the “% Inhibition @ 10 uM” value came to 6.45%. Under `Cc1ccc(C)c(CN2CCc3c([nH]c4ccccc34)C2)c1` stands -1.93%. With `Cc1ccccc1-c1nc2sc(C)c(C)c2c(=O)o1` the figure was -3.28%; with `O=S(=O)(c1ccc(-c2ccc(O)nn2)s1)N1CCN(Cc2ccc3c(c2)OCO3)CC1`, 0.224%; with `Cc1ccccc1Cn1cnc2c(cnn2C(C)(C)C)c1=O`, 1.63%. Under `CN(CC1COc2ccccc2O1)S(=O)(=O)c1csc(C(N)=O)c1` (stereo not shown) stands -4.17%; under `CCOC(=O)c1[nH]c(-c2ccc3c(c2)OCO3)nc1C`, -2.88%. As to `COc1ccc(-n2c(SCc3cc(=O)n4ccccc4n3)nc3nnc(C)c-3c2N)cc1`, the “% Inhibition @ 10 uM” value came out at 1.2%. Consider `CCOc1ccc(Nc2nc(-c3sc(N)nc3C)cs2)cc1`, for which the “% Inhibition @ 10 uM” value is -8.01%.

Consider `CCC(C)NC(=O)C(=O)NCc1ccc(Cl)cc1` (stereo not shown), for which the “% Inhibition @ 10 uM” value is reported as 1.29%.

Consider `O=C(Nc1nccs1)c1ccccc1Br`, for which the “% Inhibition @ 10 uM” value is -6.57%. With `CC(=O)c1cccc(NS(=O)(=O)c2cccc(C)c2)c1` the figure was -7.09%. Turning to `CN(Cc1ccc(F)cc1)CC(O)c1ccccc1` (stereo not shown), the “% Inhibition @ 10 uM” value came out at 6.06%.

For the compound `COc1ccc(/C=C2\CCOC2=O)cc1`, the “% Inhibition @ 10 uM” value was -3.55%.

Turning to `Cc1nn(Cc2ccccc2)c(C)c1NC(=O)c1noc2c1CCc1ccccc1-2`, the “% Inhibition @ 10 uM” value is -5.09%. Consider `COc1ccccc1CNC(=O)Nc1cn(CC(C)C)c(=O)c2ccccc12`, for which the “% Inhibition @ 10 uM” value was -4.21%. For the compound `CC(NC(=O)c1ccccc1F)c1ccc2c(c1)OCCO2` (stereo not shown), the “% Inhibition @ 10 uM” value is -0.28%. Under `Cc1cccc(N2CCN(S(C)(=O)=O)CC2)c1C` stands -0.641%; under `CCO/C(O)=C(/C=N/c1cc(C)nn1-c1ccccc1)C(C)=O`, 0.708%; under `COCCNC(=O)c1nn(C)c2c1CSc1ccccc1-2`, 21.4%. With `COc1ccc(C(=O)Nc2nn3c(CC(C)C)nnc3s2)cc1` the figure was 3.3%; with `Cc1nc2sc(C(N)=O)c(N)c2c(C)c1C`, -0.712%; with `Cc1ccc(S(=O)(=O)NCCC(=O)N2CCOCCOCCOCC2)cc1`, 0.189%. With `COc1ccc(-c2nc3scc(CCNC(=O)c4ccco4)n3n2)cc1` the figure was 2.1%; with `CCN(CC)S(=O)(=O)c1ccc(N2CCN(C(C)C)CC2)nc1`, -1.51%.

Take `CC(=O)N(Cc1cc2cccc(C)c2nc1O)c1cccc(C)c1`: the “% Inhibition @ 10 uM” value came out at 3.57%.

Consider `N#Cc1ccccc1-c1ccc(/C=C2/SC(=O)NC2=O)o1`, for which the “% Inhibition @ 10 uM” value is reported as -5.99%.

Take `CCc1[nH]nc2c1C(c1ccc(OCC(N)=O)cc1)C(C#N)=C(N)O2` (stereo not shown): the “% Inhibition @ 10 uM” value is given as -2.56%.

Turning to `COc1ccc(OC)c(C2SCCN2S(=O)(=O)c2cccc(C(F)(F)F)c2)c1` (stereo not shown), the “% Inhibition @ 10 uM” value was -3.4%. With `COc1cccc(C2C3=C(O)CCCC3=NC(C)=C2C(=O)Nc2cc(C)ccn2)c1` (stereo not shown) the figure was 13.2%. With `CCC(CC)C(=O)Nc1ccc(NC(=O)c2cccs2)cc1`, the “% Inhibition @ 10 uM” value was -3.29%. With `CC1=C(C(=O)OC2CCCCCC2)C(c2ccccc2C(F)(F)F)CC(=O)N1` (stereo not shown) the figure was -1%; with `CN(Cc1ccco1)C(=O)Cn1ncc2c1-c1ccccc1OC2`, -0.692%. Take `O=C(NCCC1=CCCCC1)c1cc(-c2ccccn2)nc2ccccc12`: the “% Inhibition @ 10 uM” value was -0.406%. With `Cc1ccc2nc3c(O)n(CC(=O)N4CC(C)CC(C)C4)ncc-3c2c1` (stereo not shown) the figure was -1.06%; with `Cc1ccc(C)c(Oc2c(C(F)(F)F)oc3c(CN4CCN(C)CC4)c(O)ccc3c2=O)c1`, 4.84%; with `CCN(CC)S(=O)(=O)N1CCC(C(=O)NCCN2CCOCC2)CC1`, 1.16%. With `CC1=C(C(=O)OC2CCCCCCC2)C(c2cc3c(cc2Br)OCO3)CC(=O)N1` (stereo not shown) the figure was -2.24%; with `CC(=O)N[C@@H](CC(C)C)C(=O)NCC#N`, 7.72%; with `Cc1nn(C(C)C(=O)NCCCN2CCCCCC2)c(=O)c2cc3sccc3n12` (stereo not shown), -5.19%. With `CC(=O)NCCc1nc2ccccc2n1CCCOc1cc(C)ccc1C(C)C` the figure was -2.28%; with `COc1cc(/C=C2\SC(N)=NC2=O)cc(Br)c1OCc1ccccc1`, 1.14%; with `COc1ccc(S(=O)(=O)NC2=NC(=O)/C(=C\c3ccc(OC)c(OC)c3)S2)cc1`, 34.3%. As to `CCC[C@@H](/C=C/S(=O)(=O)c1ccccc1)NC(=O)[C@H](Cc1ccc2ccccc2c1)NC(=O)N1CCC(N2CCOCC2)CC1`, the “% Inhibition @ 10 uM” value turned out to be 0.173%. Under `Cc1ccc(CN2C(=O)N/C(=C\c3ccccc3OCc3ccc(C(=O)O)cc3)C2=O)cc1` stands 3.72%; under `O=C(NCCN1CCOCC1)C(c1ccccc1)c1ccccc1`, 0.709%. Consider `COc1ccc(-n2c(O)cnc2Nc2nc(C)cc(C)n2)cc1OC`, for which the “% Inhibition @ 10 uM” value is 5.55%.

For the compound `Cc1cc(=O)n2nc(N3CCCC3C(=O)NCc3cccc(Cl)c3)sc2n1` (stereo not shown), the “% Inhibition @ 10 uM” value is -5.63%. With `C=CCOc1cccc(C2c3c(oc4ccccc4c3=O)C(=O)N2c2nnc(C)s2)c1` (stereo not shown) the figure was 0.189%; with `O=C(C(c1ccccc1)c1ccccc1)N1CCN(C2CC3CCC2C3)CC1` (stereo not shown), 0.206%; with `O=C1CC(c2ccccc2)CC(O)=C1/C=N/c1ccc(O)cc1` (stereo not shown), -5.01%. With `CCCn1c(=O)c(C(=O)Nc2cccc(Cl)c2Cl)c(O)c2ccccc21` the figure was 4.31%; with `O=C(O)CCc1ccc2ccccc2c1Br`, -0.902%; with `O=C(c1ccccc1C(=O)N1CCN(c2ccc(F)cc2)CC1)N1CCN(c2ccc(F)cc2)CC1`, -4.69%. With `COc1ccc(C2C(C#N)=C(N)Oc3c2c(C)nn3-c2cccc(Cl)c2)cc1` (stereo not shown) the figure was -6.92%; with `c1ccc2c(c1)OCC(c1csc3ncnc(N4CCOCC4)c13)O2` (stereo not shown), -7.14%; with `Cc1ccc(-c2nc(NC(=O)C(C)C)sc2C)cc1`, -7.96%. In the case of `COc1cccc(NC(=O)CN(c2cccc(OC)c2)S(=O)(=O)c2ccccc2)c1`, the “% Inhibition @ 10 uM” value was -5.67%. With `CC1CCCCN1C(=O)CSc1nc(-c2cccs2)cc(C(F)(F)F)n1` (stereo not shown) the figure was -0.958%; with `O=C(Cc1ccccc1)Nc1ccccc1[N+](=O)[O-]`, -2.42%.

With `CCN(CC)C(=O)c1sc(NC(=O)c2c(OC)cccc2OC)c(C#N)c1C`, the “% Inhibition @ 10 uM” value was -0.736%. With `c1ccc(C2CCC(NCCN3CCCCC3)CC2)cc1` (stereo not shown) the figure was -4.75%.
